This is one part of the list. Cleavage of a single-stranded DNA pool by Rep nickase domains was read by sequencing (1 h at 37 °C, 3 µM enzyme); the outer parts of the 90-letter strands are left off. The score is log2 (uncut reads / reads without enzyme); more negative means more cut, near 0 not cut, and no call is made. Because reads are shares of a total, they shift together; uncut strands gain when others are lost, and binding without cutting may add a little.
Key:
Test in all cases: uncleaved DNA left, log2 of reads against the no-enzyme library (log2 ratio); higher = less cleavage (more negative = more Rep cleavage of the k-mer); sequences stand for … in CTCGTCCG…ACCGGAGA
[1] = tested on: T1, Rep nickase domain of Muscovy duck circovirus
T1 sequence (residues 1-111 of Rep, tag left off): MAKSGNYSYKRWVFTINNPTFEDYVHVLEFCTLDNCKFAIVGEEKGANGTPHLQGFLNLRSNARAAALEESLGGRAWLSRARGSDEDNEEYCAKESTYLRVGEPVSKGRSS
Procedure: (§1)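 A pool of 90-nt single-stranded DNAs with seven random bases just before the constant AC of the nick site (name = the seven bases) was cut by 3 µM recombinant His6-SUMO-tagged Rep nickase domain (300 nM DNA, 50 mM HEPES pH 8.0, 50 mM NaCl, 1 mM MnCl2, 1 h, 37 °C, three replicates). Uncut DNA was amplified and sequenced.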

[2] = tested on: T2, Rep nickase domain of banana bunchy top virus
T2 sequence (residues 1-94 of Rep, tag left off): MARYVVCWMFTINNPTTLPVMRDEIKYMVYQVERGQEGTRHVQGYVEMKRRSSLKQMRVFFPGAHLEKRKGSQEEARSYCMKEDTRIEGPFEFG
Procedure: as §1

[3] = tested on: T3, Rep nickase domain of cabbage leaf curl virus
T3 sequence (residues 1-116 of Rep, tag left off): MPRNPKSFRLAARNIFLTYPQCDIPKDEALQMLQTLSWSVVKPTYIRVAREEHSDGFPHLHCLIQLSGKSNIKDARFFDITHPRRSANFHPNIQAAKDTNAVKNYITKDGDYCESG
Procedure: as §1

[4] = tested on: T4, Rep nickase domain of chickpea chlorotic dwarf virus
T4 sequence (residues 1-124 of Rep, tag left off): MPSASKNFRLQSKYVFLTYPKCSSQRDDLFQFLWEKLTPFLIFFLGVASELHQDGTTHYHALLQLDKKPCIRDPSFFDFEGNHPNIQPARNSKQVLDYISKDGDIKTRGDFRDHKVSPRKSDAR
Procedure: as §1

[5] = tested on: T5, Rep nickase domain of faba bean necrotic yellows virus
T5 sequence (residues 1-98 of Rep, tag left off): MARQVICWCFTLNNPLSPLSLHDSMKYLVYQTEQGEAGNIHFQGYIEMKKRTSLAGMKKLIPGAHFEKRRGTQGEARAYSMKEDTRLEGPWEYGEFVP
Procedure: as §1

[6] = tested on: T6, Rep nickase domain of maize striate mosaic virus
T6 sequence (residues 1-117 of Rep, tag left off): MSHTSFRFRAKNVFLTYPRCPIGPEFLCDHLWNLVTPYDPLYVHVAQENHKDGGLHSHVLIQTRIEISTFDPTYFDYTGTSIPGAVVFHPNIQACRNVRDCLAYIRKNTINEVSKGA
Procedure: as §1

[7] = tested on: T7, Rep nickase domain of porcine circovirus 2
T7 sequence (residues 2-116 of Rep, tag left off): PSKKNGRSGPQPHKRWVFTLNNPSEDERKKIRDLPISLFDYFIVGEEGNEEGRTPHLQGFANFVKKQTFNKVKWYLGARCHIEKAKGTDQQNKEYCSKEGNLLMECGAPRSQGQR
Procedure: as §1

[8] = tested on: T8, Rep nickase domain of tomato golden mosaic virus
T8 sequence (residues 1-124 of Rep, tag left off): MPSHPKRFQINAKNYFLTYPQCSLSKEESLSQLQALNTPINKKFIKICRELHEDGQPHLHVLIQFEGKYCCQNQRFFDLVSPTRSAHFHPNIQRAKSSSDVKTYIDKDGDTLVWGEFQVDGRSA
Procedure: as §1

[9] = tested on: T9, Rep nickase domain of tomato yellow leaf curl virus
T9 sequence (residues 1-136 of Rep, tag left off): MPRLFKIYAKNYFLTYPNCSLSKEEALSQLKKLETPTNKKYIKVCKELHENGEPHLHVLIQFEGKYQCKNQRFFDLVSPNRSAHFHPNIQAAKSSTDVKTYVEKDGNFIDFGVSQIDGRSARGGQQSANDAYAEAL
Procedure: as §1

[10] = tested on: T10, Rep nickase domain of wheat dwarf virus
T10 sequence (residues 1-137 of Rep, tag left off): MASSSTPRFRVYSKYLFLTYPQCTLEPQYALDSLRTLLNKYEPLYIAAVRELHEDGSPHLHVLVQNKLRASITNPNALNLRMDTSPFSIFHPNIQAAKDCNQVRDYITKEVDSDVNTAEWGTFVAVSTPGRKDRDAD
Procedure: as §1

Sequence	uncleaved DNA left (log2) [1]	uncleaved DNA left (log2) [2]	uncleaved DNA left (log2) [3]	uncleaved DNA left (log2) [4]	uncleaved DNA left (log2) [5]	uncleaved DNA left (log2) [6]	uncleaved DNA left (log2) [7]	uncleaved DNA left (log2) [8]	uncleaved DNA left (log2) [9]	uncleaved DNA left (log2) [10]
TGTACTA	-0.105	-0.0379	0.0364	-0.472	-0.168	0.56	-0.198	-0.132	0.0523	0.0517
CCCCCCA	-0.12	-0.204	-0.0229	-0.864	-0.071	-0.464	-0.342	-0.225	-0.023	0.0124
TCAATTG	0.0614	0.0487	-0.428	-0.598	-0.00656	-1.18	0.141	0.0766	0.00361	-0.0992
AACGTCG	0.11	0.0804	-0.721	-0.38	0.0523	-1.05	0.209	-0.0543	0.083	-0.0145
TCTCGAT	-0.0513	-0.22	0.0393	0.144	-0.213	0.497	-0.0906	-0.104	-0.121	-0.0291
AAATTGG	0.0574	0.0306	-0.677	-0.747	0.0515	-1.21	0.111	0.0164	0.0282	-0.0632
TGCAACC	-0.103	0.11	0.231	-0.206	-0.0912	0.277	-1.74	0.0577	0.0442	0.00232
CGAATAA	-0.0173	-0.0207	-0.229	-0.346	0.1	-0.454	0.0226	-0.0707	-0.0242	0.0606
ACATAGC	-0.173	-0.149	-0.721	-0.584	-0.0331	-1.24	0.0367	-0.0677	-0.0856	-0.215
TCTCCCG	-0.341	-0.145	-0.923	-0.558	-0.124	-1.13	-0.862	-0.228	-0.0608	-0.232
CTTATTT	-0.162	0.00912	-0.2	-2.28	-0.0458	-0.764	-0.799	-0.052	-0.13	-0.019
ACTAGGC	0.0712	0.0638	-0.172	-0.0837	0.0942	-0.916	0.175	0.145	0.0735	0.0212
ATTATCA	-0.0652	0.0814	0.618	0.885	0.0567	1.27	0.0604	-0.0187	0.0945	0.23
TTTACAA	0.0687	0.17	0.285	-0.563	0.0998	0.591	0.133	0.0761	0.176	0.144
GGTAGTC	0.0889	0.0676	0.645	1.24	0.0447	1.75	0.142	-0.0308	0.132	0.132
TTGGGCT	0.0468	0.0343	0.252	0.18	-0.0151	0.291	0.147	0.0407	0.0189	0.015
TGCCCAC	-0.13	0.051	0.176	0.425	-0.0467	0.616	-0.0538	-0.151	-0.000608	-0.00127
TATGCCA	-0.0642	-0.0381	-0.335	-2.19	0.0568	-0.968	-0.232	-0.0996	-0.00923	-0.0769
TTAGGAA	-0.0722	0.0157	0.33	1.17	-0.00556	1.42	0.15	0.0947	-0.00299	0.00055
ACGGCAT	-0.117	-0.139	-0.00476	0.424	-0.0664	0.232	-0.0751	-0.0621	-0.201	-0.065
GCAGATC	0.158	0.269	0.285	0.427	0.153	0.0258	0.311	0.156	0.187	0.296
GCCAGCG	-0.178	-0.0725	-0.642	0.814	0.0174	-0.24	0.025	-0.0803	-0.159	-0.192
TCTAAGA	0.0819	0.0043	0.0399	0.0768	0.0728	-0.852	0.0152	-0.00397	-0.0952	-0.00197
GCCTAAT	-0.904	-0.0316	0.198	0.207	0.0508	0.521	-2.75	0.032	-0.0112	0.021
AATTACT	-4.25	-3.9	-3.07	-3.67	-2.3	-1.57	-4.34	-1.63	-0.0786	-1.17
GCCCAAT	-0.0335	0.174	0.177	0.417	-0.0356	0.392	0.0056	0.0143	-0.0623	0.0635
CGGCACC	0.0196	0.0062	0.0912	0.4	-0.233	0.321	-0.0827	0.00228	-0.0284	0.115
GGTACAA	0.0507	0.194	0.9	1.95	-0.0572	2.22	0.261	0.0335	0.107	0.184
CCGCGGA	0.0339	-0.193	-0.271	-0.223	-0.135	-0.512	-0.0348	-0.131	-0.00187	-0.231

Reference: the supplement of paper PMC7826260
